Experimental data reported in article PMC9911399, “Two distinct binding modes provide the RNA-binding protein RbFox with extraordinary sequence specificity”.
Positions count from the first letter of the chain named. This is one part of the list.

T1: RBFOX1 RRM RbFoxmut (Fox-RRM*) (Homo sapiens, UniProt Q9NWB1 109-208, R118D;E147R;N151S;E152T)
T1 sequence: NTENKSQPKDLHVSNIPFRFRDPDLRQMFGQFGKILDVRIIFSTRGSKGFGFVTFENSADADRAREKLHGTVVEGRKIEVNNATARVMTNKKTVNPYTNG

B1: ACGCUUU (DNA:RNA)
RNA: GGGAGACCGGAAUUCAGAUUGUCCACGCUUUUUAAAUCCCGUCGUAGCCACCA
DNA 1: CAATCTGAATTCCGGTCTCCC
DNA 2: TGGTGGCTACGACGGGATT
B2: CGCACCC (DNA:RNA)
RNA: GGGAGACCGGAAUUCAGAUUGUCCCGCACCCUUAAAUCCCGUCGUAGCCACCA
DNA 1: CAATCTGAATTCCGGTCTCCC
DNA 2: TGGTGGCTACGACGGGATT
B3: UUCCCUG (DNA:RNA)
RNA: B1 RNA with A25U, C26U, G27C, U29C, U31G
DNA 1: CAATCTGAATTCCGGTCTCCC
DNA 2: TGGTGGCTACGACGGGATT
B4: AGAAUGG (DNA:RNA)
RNA: B1 RNA with C26G, G27A, C28A, U30G, U31G
DNA 1: CAATCTGAATTCCGGTCTCCC
DNA 2: TGGTGGCTACGACGGGATT
B5: ACAGGUC (DNA:RNA)
RNA: B1 RNA with G27A, C28G, U29G, U31C
DNA 1: CAATCTGAATTCCGGTCTCCC
DNA 2: TGGTGGCTACGACGGGATT
B6: AAUCAAG (DNA:RNA)
RNA: B1 RNA with C26A, G27U, U29A, U30A, U31G
DNA 1: CAATCTGAATTCCGGTCTCCC
DNA 2: TGGTGGCTACGACGGGATT
B7: AUGGAUA (DNA:RNA)
RNA: B1 RNA with C26U, C28G, U29A, U31A
DNA 1: CAATCTGAATTCCGGTCTCCC
DNA 2: TGGTGGCTACGACGGGATT
B8: UCAUGGU (DNA:RNA)
RNA: B1 RNA with A25U, G27A, C28U, U29G, U30G
DNA 1: CAATCTGAATTCCGGTCTCCC
DNA 2: TGGTGGCTACGACGGGATT
B9: GCAUCCA (DNA:RNA)
RNA: B2 RNA with C25G, G26C, C27A, A28U, C31A
DNA 1: CAATCTGAATTCCGGTCTCCC
DNA 2: TGGTGGCTACGACGGGATT
B10: UUCCAUA (DNA:RNA)
RNA: B1 RNA with A25U, C26U, G27C, U29A, U31A
DNA 1: CAATCTGAATTCCGGTCTCCC
DNA 2: TGGTGGCTACGACGGGATT
B11: AUCGGUG (DNA:RNA)
RNA: B1 RNA with C26U, G27C, C28G, U29G, U31G
DNA 1: CAATCTGAATTCCGGTCTCCC
DNA 2: TGGTGGCTACGACGGGATT
B12: CCACGCG (DNA:RNA)
RNA: B1 RNA with A25C, G27A, U29G, U30C, U31G
DNA 1: CAATCTGAATTCCGGTCTCCC
DNA 2: TGGTGGCTACGACGGGATT
B13: GUAAACU (DNA:RNA)
RNA: B2 RNA with C25G, G26U, C27A, C29A, C31U
DNA 1: CAATCTGAATTCCGGTCTCCC
DNA 2: TGGTGGCTACGACGGGATT
B14: GCGUACG (DNA:RNA)
RNA: B1 RNA with A25G, C28U, U29A, U30C, U31G
DNA 1: CAATCTGAATTCCGGTCTCCC
DNA 2: TGGTGGCTACGACGGGATT
B15: AAGUUCA (DNA:RNA)
RNA: B1 RNA with C26A, C28U, U30C, U31A
DNA 1: CAATCTGAATTCCGGTCTCCC
DNA 2: TGGTGGCTACGACGGGATT
B16: CGCAUAC (DNA:RNA)
RNA: B2 RNA with C29U, C30A
DNA 1: CAATCTGAATTCCGGTCTCCC
DNA 2: TGGTGGCTACGACGGGATT
B17: CAAUCAU (DNA:RNA)
RNA: B2 RNA with G26A, C27A, A28U, C30A, C31U
DNA 1: CAATCTGAATTCCGGTCTCCC
DNA 2: TGGTGGCTACGACGGGATT
B18: UUCCCUA (DNA:RNA)
RNA: B1 RNA with A25U, C26U, G27C, U29C, U31A
DNA 1: CAATCTGAATTCCGGTCTCCC
DNA 2: TGGTGGCTACGACGGGATT
B19: GAAGCGG (DNA:RNA)
RNA: B2 RNA with C25G, G26A, C27A, A28G, C30G, C31G
DNA 1: CAATCTGAATTCCGGTCTCCC
DNA 2: TGGTGGCTACGACGGGATT
B20: UAAUUAA (DNA:RNA)
RNA: B1 RNA with A25U, C26A, G27A, C28U, U30A, U31A
DNA 1: CAATCTGAATTCCGGTCTCCC
DNA 2: TGGTGGCTACGACGGGATT
B21: GCCGGAG (DNA:RNA)
RNA: B1 RNA with A25G, G27C, C28G, U29G, U30A, U31G
DNA 1: CAATCTGAATTCCGGTCTCCC
DNA 2: TGGTGGCTACGACGGGATT
B22: GAAACUU (DNA:RNA)
RNA: B1 RNA with A25G, C26A, G27A, C28A, U29C
DNA 1: CAATCTGAATTCCGGTCTCCC
DNA 2: TGGTGGCTACGACGGGATT
B23: CUACGGU (DNA:RNA)
RNA: B1 RNA with A25C, C26U, G27A, U29G, U30G
DNA 1: CAATCTGAATTCCGGTCTCCC
DNA 2: TGGTGGCTACGACGGGATT
B24: AAAGGCG (DNA:RNA)
RNA: B1 RNA with C26A, G27A, C28G, U29G, U30C, U31G
DNA 1: CAATCTGAATTCCGGTCTCCC
DNA 2: TGGTGGCTACGACGGGATT
B25: GAGUCAU (DNA:RNA)
RNA: B1 RNA with A25G, C26A, C28U, U29C, U30A
DNA 1: CAATCTGAATTCCGGTCTCCC
DNA 2: TGGTGGCTACGACGGGATT
B26: GAGAGCU (DNA:RNA)
RNA: B1 RNA with A25G, C26A, C28A, U29G, U30C
DNA 1: CAATCTGAATTCCGGTCTCCC
DNA 2: TGGTGGCTACGACGGGATT
B27: AGACAGU (DNA:RNA)
RNA: B1 RNA with C26G, G27A, U29A, U30G
DNA 1: CAATCTGAATTCCGGTCTCCC
DNA 2: TGGTGGCTACGACGGGATT
B28: GUUCAAA (DNA:RNA)
RNA: B1 RNA with A25G, C26U, G27U, U29A, U30A, U31A
DNA 1: CAATCTGAATTCCGGTCTCCC
DNA 2: TGGTGGCTACGACGGGATT
B29: CUGUCGG (DNA:RNA)
RNA: B2 RNA with G26U, C27G, A28U, C30G, C31G
DNA 1: CAATCTGAATTCCGGTCTCCC
DNA 2: TGGTGGCTACGACGGGATT
B30: CAACCGG (DNA:RNA)
RNA: B2 RNA with G26A, C27A, A28C, C30G, C31G
DNA 1: CAATCTGAATTCCGGTCTCCC
DNA 2: TGGTGGCTACGACGGGATT
B31: CCAGGGC (DNA:RNA)
RNA: B2 RNA with G26C, C27A, A28G, C29G, C30G
DNA 1: CAATCTGAATTCCGGTCTCCC
DNA 2: TGGTGGCTACGACGGGATT

Each binder was assayed against T1, RBFOX1 RRM RbFoxmut (Fox-RRM*) (assay: EMSA; HiTS-Eq, 1 nM pool, 10 min; buffer printed only for the single-RNA assays: 10 mM Tris pH 7.5, 150 mM NaCl, 3.4 mM EDTA, 0.001% NP-40, 30 C). Details: tags: His6 N-terminal (pET28a); label: 5' 32P.
In short: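 These values rest on relative association constants, computed from read-count changes of each RNA species versus the control reaction and normalised to the cognate motif. Reads came from free RNA recovered by 8% native PAGE after purified RbFox RRM (wild type or mutant) at increasing concentrations was equilibrated for 10 min in 50 µL with 1 nM of a 5′-radiolabelled pool with 7 randomized nucleotides and DNA-annealed flanks.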
For B1, the binding signal was 0.1 KA relative to UGCAUGU. B2 was tested, and the binding signal was 0.0825 KA relative to UGCAUGU. With B3 the binding signal was 0.0888 KA relative to UGCAUGU. For B4, the binding signal was 0.541 KA relative to UGCAUGU. B5 was tested, and the binding signal was 0.128 KA relative to UGCAUGU. For B6, the binding signal was 0.0698 KA relative to UGCAUGU. B7 was tested, and the binding signal was 0.135 KA relative to UGCAUGU. In the case of B8, the binding signal is reported as 0.143 KA relative to UGCAUGU. B9 was tested, and the binding signal was 0.338 KA relative to UGCAUGU. With B10 the binding signal was 0.129 KA relative to UGCAUGU. In the case of B11, the binding signal is reported as 0.14 KA relative to UGCAUGU. With B12 the binding signal was 0.133 KA relative to UGCAUGU. B13 was tested, and the binding signal was 0.0901 KA relative to UGCAUGU. B14 was tested, and the binding signal was 0.23 KA relative to UGCAUGU. B15 was tested, and the binding signal was 0.115 KA relative to UGCAUGU. In the case of B16, the binding signal is reported as 0.135 KA relative to UGCAUGU. B17 was tested, and the binding signal was 0.0811 KA relative to UGCAUGU. With B18 the binding signal was 0.075 KA relative to UGCAUGU. With B19 the binding signal was 0.0502 KA relative to UGCAUGU. In the case of B20, the binding signal is reported as 0.0571 KA relative to UGCAUGU. With B21 the binding signal was 0.0788 KA relative to UGCAUGU. With B22 the binding signal was 0.0723 KA relative to UGCAUGU. In the case of B23, the binding signal is reported as 0.0878 KA relative to UGCAUGU. For B24, the binding signal was 0.0873 KA relative to UGCAUGU. For B25, the binding signal was 0.0946 KA relative to UGCAUGU. In the case of B26, the binding signal is reported as 0.0872 KA relative to UGCAUGU. In the case of B27, the binding signal is reported as 0.0698 KA relative to UGCAUGU. For B28, the binding signal was 0.0907 KA relative to UGCAUGU. B29 was tested, and the binding signal was 0.0693 KA relative to UGCAUGU. For B30, the binding signal was 0.0516 KA relative to UGCAUGU. In the case of B31, the binding signal is reported as 0.102 KA relative to UGCAUGU.
